In all, about 45,000 compounds went through this assay and about 65 (0.1%) were called active. The call rests on the fitted dose curve; in most records, active means well fitted activation curve with a large enough effect; inconclusive means small, poorly fitted or top-dose-only effect; inactive means no such curve, though single readings can be large or run the other way. This is one part of the list.
Target: Galactocerebrosidase (Homo sapiens) (UniProt P54803)
Experiment: A Novel Cell-Based Assay to Identify Small Molecules for B -Galactocerebrosidase; further: 0% is about no effect; nearly all actives have a fitted effect of over 65% in size
Settings: 145M-Twi-hGALC-G270D cells (Twitcher mouse brain line with human GALC G270D), HMU-beta-Gal fluorescence, 48 h; series mostly up to 57.5 µM; activation: at the top concentration
In short: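 Fluorescence readout: HMU-β-gal cleavage by mutant GALC (0.1 mM final, citrate/phosphate pH 5.2 with 1 mg/mL taurocholate), stopped with carbonate/bicarbonate plus Triton X-100. Cells: murine Twitcher 145M-Twi expressing human G270D GALC; qHTS for activators.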

UniProt P54803, sequence (P54803 whole entry, looked up): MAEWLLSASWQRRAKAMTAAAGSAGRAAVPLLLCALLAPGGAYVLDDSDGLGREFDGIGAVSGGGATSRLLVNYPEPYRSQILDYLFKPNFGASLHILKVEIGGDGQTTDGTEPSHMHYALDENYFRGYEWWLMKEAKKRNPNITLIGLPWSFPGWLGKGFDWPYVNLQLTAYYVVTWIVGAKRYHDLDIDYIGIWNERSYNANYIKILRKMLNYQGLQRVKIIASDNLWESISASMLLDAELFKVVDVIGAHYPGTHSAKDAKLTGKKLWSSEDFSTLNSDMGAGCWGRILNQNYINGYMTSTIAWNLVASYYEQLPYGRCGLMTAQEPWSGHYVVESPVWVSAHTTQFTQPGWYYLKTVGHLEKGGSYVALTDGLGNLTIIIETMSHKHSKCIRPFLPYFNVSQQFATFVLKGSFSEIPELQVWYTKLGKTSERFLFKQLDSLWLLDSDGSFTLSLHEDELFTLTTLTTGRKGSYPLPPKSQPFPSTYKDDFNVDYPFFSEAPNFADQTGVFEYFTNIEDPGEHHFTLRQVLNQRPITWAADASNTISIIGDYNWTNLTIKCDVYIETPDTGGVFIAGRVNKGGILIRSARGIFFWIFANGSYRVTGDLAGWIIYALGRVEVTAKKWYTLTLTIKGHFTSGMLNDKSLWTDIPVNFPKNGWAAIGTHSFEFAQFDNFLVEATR

activation, inactive:
COc1ccc(-c2[nH]ncc2C(=O)NCc2ccccc2C)cc1 -14.9%
CCC(C(=O)NCCc1ccc(SC)cc1)n1nc(C)c2sc3ccccc3c2c1=O (configuration not stated) -6.91%
Cc1onc(-c2ccccc2Cl)c1C(=O)Oc1cc(F)cc(F)c1 -26.6%
COC(=O)c1ccccc1NC(=O)Cn1c(=O)n(-c2cccc(OC)c2)c(=O)c2c(C)c(C(=O)N(C)C)sc21 -7.41%
CC(=O)N1CCCc2cc(S(=O)(=O)N3CCC(C(=O)NCc4ccc(C)cc4)CC3)ccc21 -8.4%
O=C(c1ccc2c(c1)N(Cc1ccc(F)cc1)C(=O)c1ccccc1S2=O)N1CCC(Cc2ccccc2)CC1 (configuration not stated) -11.1%
O=C(Cn1ncc2ccc(Cl)cc21)NCc1ccc(F)cc1 -12.3%
OCc1c[nH]c2ccccc12 -4.14% [at 114 µM]
Cc1ccc(C)c(NC(=O)CSc2ncc(S(=O)(=O)c3ccc(C)c(Cl)c3)c(=O)[nH]2)c1 -9.75%
Cc1c(Cl)cccc1NC(=O)Nc1nnc(N2CCCCCC2)s1 -22.9%
Cc1ccc(C(=O)Nc2cccc(C(=O)O)c2)cc1S(=O)(=O)N1CCCC1 -10.6%
CCc1ccc(CNC(=O)c2ccc(NC(=O)N3CCCCc4ccccc43)cc2)cc1 -11.3%
COc1ccc(Cn2c(SCc3ccc(C(=O)NC(C)C)cc3)nc3cccnc32)cc1 -15.8%
COc1ccccc1NC(=O)c1cccc(S(=O)(=O)N2CCCCCC2)c1 12.5%
CCC1CN(C(=O)N2CCC(C(=O)NCc3cccc(C)c3)CC2)c2ccccc2O1 (configuration not stated) -12.1%
CCOc1ccccc1N(CC)C(=O)c1cc2c(=O)[nH]c3ccc(C)cc3c2s1 -14.4%
COC(=O)c1scc(-c2ccc(C)cc2)c1S(=O)(=O)Nc1cc(OC)c(OC)c(OC)c1 -9.16%
COc1ccc(CNC(=O)c2c3c(nc4ccccc24)C(=O)N(C2CCCCC2)C3)c(OC)c1 -21%
O=C(Cn1c(=O)nc(-c2ccccc2F)c2cc(Cl)ccc21)N1CCN(c2ccccc2F)CC1 -21%
CCCCC(CC)CNC(=O)CN1C(=O)CSc2ccc(S(=O)(=O)N3CCOCC3)cc21 (configuration not stated) 4.83%
CCN(c1cccc(C)c1)S(=O)(=O)c1ccc2[nH]cc(C(=O)NCCCOC)c(=O)c2c1 0.0925%
CC(=O)Nc1nonc1-c1nnc(SCC(=O)N(C)c2ccccc2)n1C -9.9%
O=C(Cn1cc(S(=O)(=O)Cc2cccc(Cl)c2)c2ccccc21)NCCc1ccccc1 -10.3%
Clc1cccc(-n2ncc3c(N4CCCCC4)ncnc32)c1 -14.6%
Cc1ccc(NC(=O)/C(C#N)=C/c2ccc(C(C)C)cc2)cc1C -12.6%
CCOC(=O)c1cnc2c(C)c(Cl)ccc2c1NCCc1ccccc1 -6.73%
COc1ccc(CNC(=O)C(=O)Nc2ccc(OC)cc2OC)cc1 -10.9%
O=C(COc1ccccc1Cl)NCC1(N2CCOCC2)CCCCC1 0.21%
COc1cc(OC)c(NC(=O)C2CCCN(c3ncnc4c3nc3n4CCCCC3)C2)cc1Cl (configuration not stated) -30.2%
CCc1ccc(OCC(=O)Nc2cc3oc4ccccc4c3cc2OC)cc1 -0.727%
Cc1ccccc1-c1nc(CS(=O)(=O)CC(=O)NCC(C)c2ccccc2)c(C)o1 (configuration not stated) -3.93%
CCc1ccccc1NC(=O)Cn1c(=O)n(Cc2ccc3c(c2)OCO3)c(=O)c2ccc(C(=O)NC3CCCCC3)cc21 -11.2%
CCN1CCN(CCCNC(=O)c2cc3c(=O)n(C)c4ccccc4c3s2)CC1 -15.4%
O=C(NCCc1ccccc1)c1cnc2sc(N3CCCC3)nn2c1=O -6.73%
CCCc1nn2c(=O)cc(COC(=O)c3cccc(NC(=O)COc4ccccc4C)c3)nc2s1 -28.3%
Cc1c(NC(=O)c2cccnc2)c(=O)n(-c2ccccc2)n1C -16%
COCCCNC(=O)c1oc2c(c1C)-c1nn(Cc3cccc(Cl)c3)cc1CC2 -34%
COc1ccccc1N1CCN(C(=O)c2nn(-c3ccc(C)cc3)c(=O)n(C)c2=O)CC1 -1.98%
COC(=O)C1=C(CS(=O)(=O)c2cc(Cl)ccc2OC)NC(=O)NC1c1ccccc1 (configuration not stated) 18.3%
CCCCOc1ccc(C(=O)N2CCN(CCc3ccncc3)CC2)cc1 -19.3%
CC(=O)c1c(C)nc2nc(-c3ccccc3)nn2c1C -3.64%
Cc1cc2nnc(SCC(=O)Nc3ccc(F)c(Cl)c3)n2c2ccccc12 -4.62%
COc1cc(NS(=O)(=O)c2ccc3c(c2)CCN3S(C)(=O)=O)cc(OC)c1 -24.9%
CCOC(=O)c1ccc(Nc2c(-c3ccc(O)c(OC)c3)nc3nc[nH]n23)cc1 -5.57%
Cc1cc(F)ccc1S(=O)(=O)NCC(c1ccco1)S(=O)(=O)c1cccs1 (configuration not stated) -16.9%
Cc1ccc(CNC(=O)C2CCCN(S(=O)(=O)c3cccc4nsnc34)C2)cc1 (configuration not stated) -18.6%
CCc1ccc2c(c1)c(=O)c(S(=O)(=O)c1ccc(F)cc1)cn2CC(=O)Nc1ccc(C)cc1C 1.39%
CCCn1ccc2c(OCC(=O)NCc3ccc(C)cc3)cccc2c1=O -0.527%
CCc1nn2c(=O)cc(COC(=O)c3cccc(NC(=O)c4ccccc4Cl)c3)nc2s1 -9.7%
CS(=O)(=O)OCCCCOS(C)(=O)=O -20.5%
Cc1cc2ncn(CCCCOc3ccccc3)c2cc1C -9.35%
Cc1cccc(NC(=O)c2ccc(N(Cc3ccccc3)S(C)(=O)=O)cc2)c1 -11.5%
CCN(CCCNC(=O)c1cc2c(=O)n(C)c3ccccc3c2s1)Cc1ccccc1 -14.9%
Cc1ccc2c(c1)C(c1ccc(F)cc1)N(C(=O)COc1ccc(Cl)cc1Cl)CC(=O)N2 (configuration not stated) -2.78%
COc1ccc(CNC(=O)c2cnc3sc(N4CCCC4)nn3c2=O)cc1OC 6.62%
O=C(CSc1c2c(nc3ccc(Cl)cc13)CCCC2)N1CCN(c2cccc(Cl)c2)CC1 -11.1%
Cc1ccc(C(=O)NCc2ccc(N(C)C)cc2)cc1NC(=O)c1nsc2ccccc12 -15.5%
CCOC(=O)c1cccc(NC(=O)CN2C(=O)c3ccccc3Sc3ncccc32)c1 -10.8%
CC1CCC(NC(=O)c2ccc3c(c2)N(Cc2ccccc2)C(=O)c2ccccc2S3=O)CC1 (configuration not stated) 2.06%
CCOC(=O)c1c(C)[nH]c(CCC(=O)Nc2cc(C)ccc2OC)c1C -19.4%
COc1cc(-c2nnn(CC(=O)Nc3ccc(OC(F)(F)F)cc3)n2)cc(OC)c1OC -31.7%
Cc1cccn2c(=O)c(C(=O)NCCCN3CCCCC3C)c(O)nc12 (configuration not stated) -6.45%

From PubChem BioAssay AID1159614 (National Center for Advancing Translational Sciences (NCATS), 2016)
